Measured values: publication PMC4336329 (PLoS ONE, 2015)
Hit rate of the full screen: of about 310,000 compounds, about 14,000 (4.5%) showed an effect of 50% or more. Effects have a minus sign here. The list shows a part of the results.

These compounds were tested against human ether-à-go-go-related gene (hERG) potassium channel (human, UniProt Q12809) (assay: primary screen, population patch clamp on CHO cells stably expressing hERG).
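Also: peak tail current of the secondary pulse compared with the same well before compound.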

human ether-à-go-go-related gene (hERG) potassium channel, sequence (Q12809 whole entry, looked up): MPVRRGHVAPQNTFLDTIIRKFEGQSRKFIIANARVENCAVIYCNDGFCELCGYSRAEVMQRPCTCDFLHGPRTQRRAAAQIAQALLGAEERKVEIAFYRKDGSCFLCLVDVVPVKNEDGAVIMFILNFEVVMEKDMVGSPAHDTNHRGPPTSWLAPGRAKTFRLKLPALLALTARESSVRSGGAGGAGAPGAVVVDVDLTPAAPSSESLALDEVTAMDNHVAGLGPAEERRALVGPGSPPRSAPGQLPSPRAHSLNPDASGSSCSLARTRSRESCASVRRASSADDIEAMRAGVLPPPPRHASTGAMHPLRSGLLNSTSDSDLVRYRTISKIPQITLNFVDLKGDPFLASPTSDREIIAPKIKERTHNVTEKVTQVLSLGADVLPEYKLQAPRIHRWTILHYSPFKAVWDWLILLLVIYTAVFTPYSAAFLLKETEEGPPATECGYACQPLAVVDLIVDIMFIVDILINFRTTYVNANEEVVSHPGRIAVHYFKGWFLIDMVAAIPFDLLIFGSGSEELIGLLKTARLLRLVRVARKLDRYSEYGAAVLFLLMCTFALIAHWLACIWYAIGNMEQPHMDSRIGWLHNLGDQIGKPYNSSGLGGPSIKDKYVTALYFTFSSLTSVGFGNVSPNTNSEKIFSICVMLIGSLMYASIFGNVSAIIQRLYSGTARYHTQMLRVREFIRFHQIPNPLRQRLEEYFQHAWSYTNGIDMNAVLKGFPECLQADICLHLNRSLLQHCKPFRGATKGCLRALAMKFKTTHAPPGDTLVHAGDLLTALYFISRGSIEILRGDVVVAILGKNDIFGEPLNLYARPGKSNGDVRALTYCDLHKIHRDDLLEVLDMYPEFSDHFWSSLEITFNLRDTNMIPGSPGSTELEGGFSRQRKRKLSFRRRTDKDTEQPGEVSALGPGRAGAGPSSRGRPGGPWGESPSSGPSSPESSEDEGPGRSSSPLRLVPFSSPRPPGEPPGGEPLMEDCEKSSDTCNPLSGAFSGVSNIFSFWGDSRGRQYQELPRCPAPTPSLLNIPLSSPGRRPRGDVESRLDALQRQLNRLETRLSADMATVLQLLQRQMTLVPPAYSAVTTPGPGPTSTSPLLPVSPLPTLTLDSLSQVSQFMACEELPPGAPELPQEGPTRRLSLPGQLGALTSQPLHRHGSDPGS

Row | Structure (SMILES) | hERG current change (%, negative = inhibition) at 10uM [%]
1 | COc1ccc(C(=O)c2ccc(Cl)c([N+](=O)[O-])c2)cc1 | -1.33
2 | CSC1=N/C(=C/c2cccnc2)C(=O)N1Cc1ccccc1 | -35.1
3 | Cc1ccc(-c2cc(C(=O)N3CCOCC3)no2)cc1 | -31
4 | O=S(=O)(c1ccc2c(c1)OCCO2)N1CCN(Cc2ccccc2)CC1 | -9.92
5 | CN(C)CCCCNCCCNC(=O)/C=N\O | 20.4
6 | COCCn1nnnc1C(c1cc(OC)ccc1OC)N1CCc2ccccc2C1.Cl (centres unmarked) | 9.4
7 | Cc1ccn(CC(=O)NC2CCCN(Cc3ccc(CC(C)C)cc3)C2)n1 (centres unmarked) | -55.2
8 | C=CCOC(=O)C1=C(C)NC(=O)NC1c1ccc(OCC)cc1 (centres unmarked) | -4.06
9 | C=CCc1c(C)nn(CC(=O)O)c1-c1ccccc1 | 12.5
10 | O=C(NCC1CCCO1)c1ccccc1-c1nc(-c2ccc(F)cc2)no1 (centres unmarked) | -31.1
11 | CCOC(=O)c1[nH]c2ccc(Cl)cc2c1-c1ccccc1 | 17
12 | CCCC(NC(=O)C(C)Sc1nnnn1C1CC1)c1ccccc1 (centres unmarked) | 0.793
13 | CC1CN(C(=O)c2cccc(S(=O)(=O)Nc3ccc(Cl)cc3)c2)CC(C)O1 (centres unmarked) | 14.5
14 | COc1ccc(C#Cc2ccc3c(=O)c4ccccc4n(C)c3c2)cc1 | 18
15 | CCOc1cc(N2CCOCC2)c(OCC)cc1NC(=O)c1ccc(NC(C)=O)cc1 | 6.94
16 | O=C(NC(=S)N1CCCC1)c1cccc([N+](=O)[O-])c1 | 19.9
17 | Cc1cc(O)c(NC(=O)c2cc([N+](=O)[O-])ccc2Cl)cc1C | -20.6
18 | COc1cccc(CC2(CO)CCCN(Cc3c(C)cc(C)cc3-n3cccn3)C2)c1 (centres unmarked) | -84.4
19 | CSc1ccc(C(=O)C2CCCN(Cc3ccn[nH]3)C2)cc1 (centres unmarked) | -26.6
20 | CCOc1ccc(C(=O)NC2CC3CCCC(C2)N3CC(C)C)cc1 (centres unmarked) | -41.1
21 | OC1CCN(C(c2ccc3ncccc3c2)c2nnnn2C2CCCCC2)CC1 (centres unmarked) | -31.8
22 | O=C(CSc1nc2ccccc2s1)Nc1nccs1 | 14

Row | Structure (SMILES) | hERG current change (%, negative = inhibition) at 10uM [%]
23 | NC(=O)c1sc2nc(-c3ccco3)ccc2c1N | 8.56
24 | Cc1ccccc1CC1SC(N=C(N)N)=NC1=O (centres unmarked) | 4.41
25 | O=C(NCCCC(=O)N1CCCCC1)c1ccc(Cl)cc1 | -2.72
26 | O=C(CSc1nncc(=O)[nH]1)NC1CCCCC1 | 27
27 | Cc1cc2oc(=O)cc(CN(C)Cc3ccccc3F)c2cc1Cl | 4.97
28 | CN(CCCN1c2ccccc2CCc2ccccc21)CC(=O)c1ccc(Cl)cc1.Cl | -9.81
29 | CSc1nc(-c2ccccc2)c2cc(Cl)ccc2n1 | 13.2
30 | Cc1ccc(C)c(NC(=O)CCN2CC(C)CC(C)C2)c1 (centres unmarked) | 3.58
31 | COc1ccccc1/C=C1/SC(=O)N(CCC(=O)Nc2ccc(S(=O)(=O)Nc3nccs3)cc2)C1=O | 5.05
32 | CN(C)S(=O)(=O)c1ccc(C(=O)NCc2nnc(SCC(=O)NCc3ccco3)o2)cc1 | 15.8
33 | Cc1noc(C)c1S(=O)(=O)N(CC(=O)N1CCCCCC1)c1ccc(C(C)C)cc1 | -17
34 | O=C(Nc1ccc(N2CCOCC2)cc1)c1ccc(S(=O)(=O)NCc2ccco2)cc1 | 9.5
35 | CC(C)NCC(O)COc1ccc(CC(N)=O)cc1 (centres unmarked) | 24.2
36 | COc1cc2[nH]c(=S)n(Cc3ccc(C)o3)c(=O)c2cc1OC | 4
37 | CCN(CC)CC#CCC(C)(c1ccccc1)c1ccccc1.Cl | -54.8
38 | O=[N+]([O-])c1cccc(N/N=C/c2ccc(N3CCOCC3)cc2)c1 | 7.91
39 | O=C(CCCN1C(=O)c2cccc3cccc(c23)C1=O)NC1CCS(=O)(=O)C1 (centres unmarked) | -3.7
40 | CCOC(=O)c1c(NC(=O)CSc2nncs2)sc(C)c1C | 15.5
41 | Cc1sc2nc(CN(Cc3cccs3)C(=O)C3CC3)[nH]c(=O)c2c1C | -22.3
42 | COc1cccc(CN2CC(C(=O)NCCN3CCOC3=O)CCC2=O)c1 (centres unmarked) | 14.8
43 | O=C(CC1NCCN(Cc2ccccc2)C1=O)Nc1ccc(Cl)cc1 (centres unmarked) | 5.5
44 | COC(=O)CN1C(=S)N(c2ccc(OC)cc2)C(=O)C1CC(=O)Nc1ccc(F)cc1 (centres unmarked) | -24.6
